In the supplement of paper PMC8728848:
Some of the results follow.

Experiments:
Experiment in all cases: glycan array binding signal (z-score within array); higher = stronger binding
Conditions in all cases: glycan notation: IUPAC condensed, linker removed
[1] = biological target: Neu5Ac(a2-3)Gal(b1-4)GlcNAc(b1-2)[Neu5Ac(a2-3)Gal(b1-4)GlcNAc(b1-4)]Man(a1-3)[GlcNAc(b1-4)][Neu5Ac(a2-3)Gal(b1-4)GlcNAc(b1-2)[Neu5Ac(a2-3)Gal(b1-4)GlcNAc(b1-6)]Man(a1-6)]Man(b1-4)GlcNAc(b1-4)GlcNAc
Summary of the method: (§1)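 The Consortium for Functional Glycomics database supplied 3228 glycan arrays, of which those lacking an available protein sequence were dropped. The binding signal, a within-array Z-score, was averaged across arrays of the same protein sequence and across linkers. Negative scores can be read as non-binding.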

[2] = biological target: Neu5Ac(a2-3)Gal(b1-4)GlcNAc(b1-2)[Neu5Ac(a2-3)Gal(b1-4)GlcNAc(b1-4)]Man(a1-3)[GlcNAc(b1-4)][Neu5Ac(a2-3)Gal(b1-4)GlcNAc(b1-4)Man(a1-6)]Man(b1-4)GlcNAc(b1-4)GlcNAc
Summary of the method: as §1

[3] = biological target: Neu5Ac(a2-3)Gal(b1-4)GlcNAc(b1-2)[Neu5Ac(a2-3)Gal(b1-4)GlcNAc(b1-6)]Man(a1-6)[Neu5Ac(a2-3)Gal(b1-4)GlcNAc(b1-2)Man(a1-3)][GlcNAc(b1-4)]Man(b1-4)GlcNAc(b1-4)GlcNAc
Summary of the method: as §1

[4] = biological target: Neu5Ac(a2-3)Gal(b1-4)GlcNAc(b1-3)Gal
Summary of the method: as §1

[5] = biological target: Neu5Ac(a2-3)Gal(b1-4)GlcNAc(b1-3)Gal(b1-3)GlcNAc
Summary of the method: as §1

[6] = biological target: Neu5Ac(a2-3)Gal(b1-4)GlcNAc(b1-3)Gal(b1-4)GlcNAc
Summary of the method: as §1

[7] = biological target: Neu5Ac(a2-3)Gal(b1-4)GlcNAc(b1-3)Gal(b1-4)GlcNAc(b1-2)Man(a1-3)[Neu5Ac(a2-3)Gal(b1-4)GlcNAc(b1-3)Gal(b1-4)GlcNAc(b1-2)Man(a1-6)]Man(b1-4)GlcNAc(b1-4)GlcNAc
Summary of the method: as §1

[8] = biological target: Neu5Ac(a2-3)Gal(b1-4)GlcNAc(b1-3)Gal(b1-4)GlcNAc(b1-3)Gal(b1-4)GlcNAc
Summary of the method: as §1

[9] = biological target: Neu5Ac(a2-3)Gal(b1-4)GlcNAc(b1-3)Gal(b1-4)GlcNAc(b1-3)Gal(b1-4)GlcNAc(b1-2)Man(a1-3)[Neu5Ac(a2-3)Gal(b1-4)GlcNAc(b1-3)Gal(b1-4)GlcNAc(b1-3)Gal(b1-4)GlcNAc(b1-2)Man(a1-6)]GalNAc
Summary of the method: as §1

[10] = biological target: Neu5Ac(a2-3)Gal(b1-4)GlcNAc(b1-3)Gal(b1-4)GlcNAc(b1-3)GalNAc
Summary of the method: as §1

[11] = biological target: Neu5Ac(a2-3)Gal(b1-4)GlcNAc(b1-3)Gal(b1-4)GlcNAc(b1-3)[Neu5Ac(a2-3)Gal(b1-4)GlcNAc(b1-3)Gal(b1-4)GlcNAc(b1-6)]GalNAc
Summary of the method: as §1

[12] = biological target: Neu5Ac(a2-3)Gal(b1-4)GlcNAc(b1-3)Gal(b1-4)GlcNAc(b1-6)[Gal(b1-3)]GalNAc
Summary of the method: as §1

[13] = biological target: Neu5Ac(a2-3)Gal(b1-4)GlcNAc(b1-3)Gal(b1-4)[Fuc(a1-3)]GlcNAc
Summary of the method: as §1

[14] = biological target: Neu5Ac(a2-3)Gal(b1-4)GlcNAc(b1-3)GalNAc
Summary of the method: as §1

[15] = biological target: Neu5Ac(a2-3)Gal(b1-4)GlcNAc(b1-3)[Neu5Ac(a2-3)Gal(b1-4)GlcNAc(b1-6)]GalNAc
Summary of the method: as §1

[16] = biological target: Neu5Ac(a2-3)Gal(b1-4)GlcNAc(b1-6)GalNAc
Summary of the method: as §1

[17] = biological target: Neu5Ac(a2-3)Gal(b1-4)GlcNAc(b1-6)[Gal(b1-3)]GalNAc
Summary of the method: as §1

[18] = biological target: Neu5Ac(a2-3)Gal(b1-4)GlcNAc(b1-6)[Neu5Ac(a2-3)Gal(b1-3)]GalNAc
Summary of the method: as §1

[19] = biological target: Neu5Ac(a2-3)Gal(b1-4)GlcNAc6S
Summary of the method: as §1

[20] = biological target: Neu5Ac(a2-3)Gal(b1-4)[Fuc(a1-3)]GlcNAc
Summary of the method: as §1

[21] = biological target: Neu5Ac(a2-3)Gal(b1-4)[Fuc(a1-3)]GlcNAc(b1-2)Man
Summary of the method: as §1

[22] = biological target: Neu5Ac(a2-3)Gal(b1-4)[Fuc(a1-3)]GlcNAc(b1-3)Gal
Summary of the method: as §1

[23] = biological target: Neu5Ac(a2-3)Gal(b1-4)[Fuc(a1-3)]GlcNAc(b1-3)Gal(b1-4)GlcNAc
Summary of the method: as §1

[24] = biological target: Neu5Ac(a2-3)Gal(b1-4)[Fuc(a1-3)]GlcNAc(b1-3)Gal(b1-4)[Fuc(a1-3)]GlcNAc(b1-3)Gal(b1-4)[Fuc(a1-3)]GlcNAc
Summary of the method: as §1

[25] = biological target: Neu5Ac(a2-3)Gal(b1-4)[Fuc(a1-3)]GlcNAc(b1-3)GalNAc
Summary of the method: as §1

[26] = biological target: Neu5Ac(a2-3)Gal(b1-4)[Fuc(a1-3)]GlcNAc(b1-6)[Gal(b1-3)]GalNAc
Summary of the method: as §1

[27] = biological target: Neu5Ac(a2-3)Gal(b1-4)[Fuc(a1-3)]GlcNAc(b1-6)[Neu5Ac(a2-3)Gal(b1-3)]GalNAc
Summary of the method: as §1

[28] = biological target: Neu5Ac(a2-3)Gal(b1-4)[Fuc(a1-3)]GlcNAc6S
Summary of the method: as §1

[29] = biological target: Neu5Ac(a2-3)Gal6S(b1-4)GlcNAc
Summary of the method: as §1

[30] = biological target: Neu5Ac(a2-3)Gal6S(b1-4)[Fuc(a1-3)]GlcNAc
Summary of the method: as §1

Neu5Ac(a2-3)GalNAc = biological target: Neu5Ac(a2-3)GalNAc
Summary of the method: as §1

[31] = biological target: Neu5Ac(a2-3)GalNAc(b1-4)GlcNAc
Summary of the method: as §1

[32] = biological target: Neu5Ac(a2-3)[GalNAc(b1-4)]Gal(b1-4)Glc
Summary of the method: as §1

[33] = biological target: Neu5Ac(a2-3)[GalNAc(b1-4)]Gal(b1-4)GlcNAc
Summary of the method: as §1

[34] = biological target: Neu5Ac(a2-3)[GalNAc(b1-4)]Gal(b1-4)GlcNAc(b1-3)GalNAc
Summary of the method: as §1

[35] = biological target: Neu5Ac(a2-3)[Neu5Ac(a2-6)]GalNAc
Summary of the method: as §1

Neu5Ac(a2-6)Gal = biological target: Neu5Ac(a2-6)Gal
Summary of the method: as §1

B1: B1257 (Bifidobacterium sp) (protein)
chain: MKKSIRLVAAIAALAMTAGISACGSSTNGNQAKSDVTAQDVETALTDTSKNVELTVWAYSAKQMEPTVKAFEKKYPHIKINFVNTGAAGDHFTKFQNVVQAQKDIPDVVQMGANKFQQFAVSGALLNFANDSIEKAWSKLYTKTAWAQVHYAGGLYGAPQDATPLANYVRKDILDEHNLQVPESWEDIYNEGIKLHKEDSNKYMGILGSDISFFTNLYRSVGARLWKVNSVDDVELTMNSGKAKEFTEFLQKCLKDGVLEGGTVFTDEFNRSINDGRYATFINENWMGNTYKEQNPSLKGKMVVAAPPSWKGQPYQSSSVGSMMSVSAACPKEKQAAALAFINWLDSDKDAIQSWQDTNNGNFFMAASVYQDDENQRNKKETDGYYANDDVNAVYFDSMDKVNTDWEYLPFMSQVEVVFNDVIVPQMNENGDLVGAMAKAQQELKTYAKDNGFKVTTDAD
glycan array binding signal (z-score) [1]: -0.063 | glycan array binding signal (z-score) [2]: -0.096 | glycan array binding signal (z-score) [3]: -0.126 | glycan array binding signal (z-score) [4]: -0.111 | glycan array binding signal (z-score) [5]: -0.16 | glycan array binding signal (z-score) [6]: -0.172 | glycan array binding signal (z-score) [7]: 0.154 | glycan array binding signal (z-score) [8]: -0.131 | glycan array binding signal (z-score) [9]: 0.156 | glycan array binding signal (z-score) [10]: -0.094 | glycan array binding signal (z-score) [11]: -0.089 | glycan array binding signal (z-score) [12]: -0.087 | glycan array binding signal (z-score) [13]: -0.196 | glycan array binding signal (z-score) [14]: 0.727 | glycan array binding signal (z-score) [15]: -0.1 | glycan array binding signal (z-score) [16]: -0.129 | glycan array binding signal (z-score) [17]: 0.13 | glycan array binding signal (z-score) [18]: -0.127 | glycan array binding signal (z-score) [19]: -0.065 | glycan array binding signal (z-score) [20]: -0.193 | glycan array binding signal (z-score) [21]: -0.237 | glycan array binding signal (z-score) [22]: -0.165 | glycan array binding signal (z-score) [23]: 0.008 | glycan array binding signal (z-score) [24]: 0.013 | glycan array binding signal (z-score) [25]: 0.158 | glycan array binding signal (z-score) [26]: 0.14 | glycan array binding signal (z-score) [27]: 0.061 | glycan array binding signal (z-score) [28]: -0.091 | glycan array binding signal (z-score) [29]: -0.197 | glycan array binding signal (z-score) [30]: -0.194 | glycan array binding signal (z-score) (Neu5Ac(a2-3)GalNAc): -0.249 | glycan array binding signal (z-score) [31]: -0.161 | glycan array binding signal (z-score) [32]: -0.082 | glycan array binding signal (z-score) [33]: -0.106 | glycan array binding signal (z-score) [34]: -0.074 | glycan array binding signal (z-score) [35]: -0.127 | glycan array binding signal (z-score) (Neu5Ac(a2-6)Gal): 0.042
